# The source gives no read counts; variants with many changes may rest on few reads.
# B1: OR4K15 (parent)
# chain: GUUAACGGUCAUAGGCCAUGGAAACUAGGAGCACCAUUUCGCUGCCAGUGAAGAAAUGAACAAAGAAAAUCUGGGCCAGGCAGGCAUCAAAAGAAAUAGUCUUGCGCUCAACCAGAAAGUCUGUAAUCAUUUUAAGGGUA
# Variants of: B1
# Experiment: self-cleavage, relative activity (ratio to wild type); higher = more cleavage; in vitro, sequencing; the parent is a self-cleaving ribozyme
row,Variant,self-cleavage
1,A52G A69G A90G,0.87
2,U9C A33G U127A,1.43
3,U70A A90U U133A,1.26
4,A51G A54G A63G A89G A95G A118G,0.78
5,U3C A114G A135G,0.44
6,U2G A27G U72G,0.66
7,U43C A78U A96G A114G,0.05
8,A18G U43C A54G A95G,2.38
9,A69G A94G U108C,0.01
10,U3C A54G U70C,0.58
11,A23G A69G U127C,0.43
12,C25A U108A A118G,0
13,A4G C16U A18G,1.31
14,A55G A94G U100A,0.05
15,A52U A62G U122C,0.8
16,A11U A36U A66U A110G,0.12
17,U9C A30G A96G U103C,1.25
18,U19C A51G A56G A60G U72A A86G U131C,0.13
19,G31U A68G A140G,1.98
20,U38C A52G A134G,0.96
21,A11G A24U A55G A96G G99U,0.48

row,Variant,self-cleavage
1,C6A A18U A126G,0.89
2,A18U U39A A69G C77U G106U U108C A114U U133C,0
3,A47G C101U A114G U139C,0.05
4,A78G A86G A116G U122C,0.07
5,U39C A69G U72A,0.64
6,U37A U49C U100A,0.48
7,C17U A22G A52G,0.4
8,A24G A55U A59G U70C,0.44
9,U57A A96G A116G,0.49
10,A95G A96G A116U,0.35
11,A23G A63G U139C A140G,1.09
12,A5G A69G A82G A94G,0.49
13,A68G A111G A116G,0.03
14,A51U A78G U102C,0.28
15,A59G A67G A82G U100C,1.19
16,A52G A126C U127A,0.75
17,G8A A59G A78G,0.28
18,A52G A68G U108G,0.04
19,A82G U102C U103A,0.65
20,A30G U39C G80A A90G U130C,0.22
21,A54G A68G A126G U127C,0.94

row,Variant,self-cleavage
1,A4G A11G A23G,1.21
2,A23G U37C A64G,1.53
3,A60G A69U A82G U139C,0.59
4,A22C U70C A98G,0.12
5,U43C A67G A111G A114C,0
6,A52U A56G A69G U87C,0.37
7,U12C A60G U100C A111G,0.12
8,U19C A47U A134G,0.74
9,A36G U103A A111G,0.02
10,A5U A13U A68G A69G A90G U108A,0.08
11,A60G U100A U120C,0.34
12,A60U G104U A118G,0.01
13,A5G U12C A64G,1.02
14,A52U U70A U132A,0.89
15,U26A U38C C77U,1.42
16,A51G U87G A114U,0.01
17,A23G U37A A59U U87C,1.04
18,A51G A55G C105U,0.08
19,A22G A23G A69G A116G,0.16
20,U2A U9C A69G U102C G106A,0.02
21,U43A A54U U108C,0.03

row,Variant,self-cleavage
1,A4G U38A U43C U72G,0.3
2,A23G A60G A62C A64G,0.44
3,U39A A47G A68G U108A,0.04
4,U3G A11G A82G G83C A86G A116G,0.06
5,U38C A54G A95G U108A A116U,0.01
6,G28A A55G G75A A95U U120C,0.08
7,A23G U102C U122A,1.72
8,A27G A30G G73A,0.3
9,C6A A11G U49C A91G U100C,1.41
10,A11G C88A A140G,1.4
11,U49C A96G C109U,0.09
12,A27G A36C U37C A54G A67U A68G A69G A118G U120A,0.16
13,A27G U57C U70C A96G A129G U132C,0.63
14,U2C A33U U39A U122C,1.51
15,A23G U72C A129G,0.16
16,U37C A47G A63G,1
17,U57G A64G A78G U139G A140U,0.17
18,U9C C35U A86C,0.39
19,A18G U38C A91G U102C,2.06
20,G14A A51G U132C,1.78

# From the RNAGym collection of RNA variant scans (doi:10.7554/elife.90254)
